90 molecules from PubChem BioAssay AID463173 (ICCB-Longwood Screening Facility, Harvard Medical School, 2010) can be followed below.

Each structure is given as a SMILES string. The campaign covered roughly 52,000 compounds. About 1,700 (3.3%) were called active. Rule as the data show it: active = survival mostly below about 52% (no sharp cut-off); inactive = mostly above about 56%. The list shows a part of the results.

In the assay the test system is Wild type. Put plainly: growth inhibition of S. aureus wild type versus tarO mutant, primary screen, teichoic acid synthesis inhibitors, RN4220, OD600 (AID 463173). Conditions: S. aureus RN4220 wild type/DeltatarO growth, OD600, 18 h, stronger effect = lower value, screened at 18.75 µg/mL (by protocol).
For `COc1ccc(C2C=C(c3ccccc3)Nc3nc(NC(=O)/C=C/c4ccccc4Cl)nn32)cc1` (stereo not given), the survival is inactive: 112%.
The result for `CCc1cnc2c(c1SCC(=O)NCc1ccc(F)cc1)c(=O)n(C)c(=O)n2C` reads inactive: 131%; that for `Cc1cccc(C(=O)Nc2ccc3nc(SCCOc4ccccc4)sc3c2)c1`, inactive: 93%.
For `COc1ccc(CCNc2nc(SCc3ccc(Cl)cc3)nc3ccccc23)cc1OC`, the survival was inactive: 69%.
As for `Nc1c(C(=O)Nc2cccc(F)c2)c2ccccn2c1C(=O)c1ccccc1`, the survival is inactive: 97%.
In the case of `CCOC(=O)c1c(NC(=O)COc2cccc(C)c2C)sc(C(C)=O)c1C`, the survival was inactive: 130%.
To `COc1ccc(N2CCN(C(c3ccccc3F)c3sc4nc(-c5ccco5)nn4c3O)CC2)cc1` (stereo not given) belongs inactive: 66%; to `COc1ccc(Cl)cc1NC(=O)Cn1c(=O)c(-c2ccccc2NC(C)=O)nc2ccccc21`, inactive: 112%.
To `Cc1ccc(C)c(Cn2c(C(=O)O)c(CNCc3cccs3)c3ccccc32)c1` belongs inactive: 86%; to `Fc1ccc(CSc2nncn2NCc2ccc3c(c2)OCO3)cc1`, inactive: 105%.
To `Cc1cc(C)c2c(c1)c(C)cc1nnc(SCC(=O)c3ccc(F)cc3)n12` belongs inactive: 61%.
For the molecule `COC(=O)c1ccccc1NC(=O)Cn1c(=O)cc(C)c2c(C)nn(C)c21`, the survival was inactive: 85%.
The result for `CCCCC(=O)N1CCc2cc(OC)c(OC)cc2C1COc1ccc(OC)cc1` (stereo not given) reads inactive: 74%; that for `Cc1c(C(=O)O)oc2c1-c1nn(Cc3ccc(Cl)cc3)cc1CC2`, inactive: 77%.
For the molecule `CN(C)CCNC(=O)C(=O)NCC(c1ccc2c(c1)OCO2)N1CCOCC1` (stereo not given), the survival is inactive: 73%.
For `Cc1cc(-c2ccccc2)n2nc(-c3ccccc3)cc2n1`, the survival was active: -2%.
The result for `COc1ccccc1C(=O)Nc1c(C(=O)Nc2ccccc2F)oc2ccccc12` reads active: 2%; that for `CCCCOc1ccc(C(=O)OCC2CCCN3CCCCC23)cc1OC` (stereo not given), inactive: 108%.
For `COc1cccc(CNS(=O)(=O)c2ccc3c(c2)C(C(C)C)C(=O)N3)c1` (stereo not given), the survival is inactive: 152%.
The result for `Cc1ccc2cccc(NC(=O)C(C)Oc3ccc(Cl)cc3Cl)c2n1` (stereo not given) reads active: -9%.
The result for `O=C(NCCC1CCCC1)c1cccs1` reads inactive: 109%; that for `CCOc1ccc(C(c2c(O)cc(C)n(Cc3ccco3)c2=O)N2CCCCC2)cc1` (stereo not given), inactive: 72%; that for `O=C(Nc1cccc(-c2nc3ccccc3o2)c1)C(F)(F)F`, inactive: 70%.
The result for `CN(C)CCN1C(=O)C(=O)/C(=C(/O)c2ccc(S(=O)(=O)N(C)C)cc2)C1c1ccccc1` (stereo not given) reads inactive: 102%; that for `COc1ccc(CNC(=O)Nc2cn(CC(C)C)c(=O)c3ccccc23)cc1`, inactive: 71%.
`CC(=O)c1ccc(NC(=O)CN(C)S(=O)(=O)c2cnc[nH]2)cc1`: the survival is inactive: 85%.
As to `Cc1cc(Cl)ccc1OCC(=O)N1CCC(c2nc3ccccc3s2)CC1`, the survival was inactive: 35%.
To `Cc1cc(C)c(NC(=O)CSc2nncn3c2cc2oc(C)cc23)c(C)c1` belongs inactive: 85%.
To `Cc1ccn2c(Nc3ccc(C(C)C)cc3)c(-c3cccnc3)nc2c1` belongs inactive: 47%.
Turning to `Cc1ccc(OCCSc2nc(C)c(Cc3ccccc3)c(=O)[nH]2)cc1`, the survival was inactive: 86%.
On to `CC(=O)c1cccc(NS(=O)(=O)c2cc3c(cc2C)N(C(C)=O)CCO3)c1`, for which the survival is inactive: 83%.
On to `O=C(CCCc1ccccc1)NC1CC(=O)N(c2ccc(F)cc2)C1` (stereo not given), for which the survival is inactive: 72%.
The result for `Cn1nc(OCC(N)=O)ccc1=O` reads inactive: 104%; that for `CCc1cccc(NC(=O)c2ccc(NC(=O)N3CCSc4ncccc43)cc2)c1`, active: -3%.
The result for `Cc1ccc(NC(=O)N2CCC(CN3CCCC3)CC2)c(C)c1` reads inactive: 87%; that for `Cc1ccc(-c2nc(C(=O)NCc3ccccc3Cl)c3n2CCCCC3)cc1`, inactive: 76%.
To `Cc1ccc2nc(-c3cc(NC(=O)COc4ccc(C)c(C)c4)ccc3Cl)oc2c1` belongs inactive: 57%; to `Cc1ccc(S(=O)(=O)Nc2cc3c(cc2N2CCOCC2)n(C)c(=O)n3C)cc1`, inactive: 80%; to `Cc1ccc(NC(=O)N2CCN(c3cc(-c4noc(C)n4)ccc3C)CC2)c(F)c1`, active: -6%.
Regarding `CCC(=O)Oc1ccc(C2Nc3ccccc3-c3nnc(SC)nc3O2)cc1` (stereo not given), the survival was inactive: 83%.
For `Cc1ccc(C(=O)NCC(c2ccc3c(c2)OCO3)N2CCOCC2)cc1` (stereo not given), the survival is inactive: 78%.
The result for `CCc1nn(CCCC(=O)N2CCN(c3cccc(OC)c3)CC2)c(=O)c2cc3occc3n12` reads inactive: 124%.
The result for `Cc1c(-c2nc(-c3ccc4c(c3)OCO4)no2)nnn1-c1ccc(C(C)C)cc1` reads inactive: 73%; that for `Cc1cccc(NC(=O)C(Cc2ccccc2)NS(=O)(=O)c2ccc3c(c2)c(=O)n(C)c(=O)n3C)c1` (stereo not given), inactive: 75%.
As for `COC(=O)C1CCN(S(=O)(=O)c2ccc(N3CCCCS3(=O)=O)cc2)CC1`, the survival is inactive: 71%.
To `COC(=O)c1cc(C)nc2c1c(=O)nc(SCc1ccccc1C)n2C1CC1` belongs inactive: 85%; to `CCOC(=O)c1c(NC(=O)CSc2cn(CCNC(=O)c3c(F)cccc3F)c3ccccc23)sc2c1CCC2`, inactive: 81%; to `COc1ccc(CCN2C(=O)c3[nH]nc(-c4ccccc4O)c3C2c2ccc(OC)c(OC)c2)cc1` (stereo not given), inactive: 55%.
`CC(=O)Nc1c(C)nn(-c2ccccc2)c1N1CCC(C(=O)NCc2ccccc2Cl)CC1`: the survival is active: -4%.
As for `CC1(C)CC(=O)C=C(NCC(O)c2ccccc2)C1` (stereo not given), the survival was inactive: 98%.
In the case of `Cc1ccc(S(=O)Cc2nc(-c3ccc(C(=O)NCc4cccc(C)c4)cc3)oc2C)cc1` (stereo not given), the survival is inactive: 99%.
On to `O=C(CCn1nc(-c2ccc(Cl)cc2)ccc1=O)NCCc1ccccc1`, for which the survival is inactive: 77%.
With `O=C(COc1ccccc1Cl)Nc1ccc2nc(SCC(=O)N3CCCC3)sc2c1`, the survival was inactive: 40%.
For the molecule `CCCn1c(=O)c2sccc2n2c(CCCC(=O)NCc3ccccc3)nnc12`, the survival was inactive: 99%.
The result for `CCOC(=O)COc1ccc(F)cc1C(=O)c1ccn2nc(-c3ccc(Cl)cc3)cc2n1` reads inactive: 72%; that for `CCOC(=O)c1noc2ncnc(Nc3cccc(OC)c3)c12`, inactive: 73%; that for `CCOC(=O)C1=C(CS(=O)(=O)c2ccc(OC)c(Cl)c2)NC(=O)NC1c1cccc(OC)c1` (stereo not given), inactive: 87%.
The result for `COc1cccc(NC(=O)CSc2nc(-c3ccccc3Cl)nc3c2Cc2c(CO)cnc(C)c2O3)c1` reads inactive: 114%; that for `CCOc1ccc(-n2c(SCC(N)=O)nc3c(oc4ccccc43)c2=O)cc1`, inactive: 83%.
Turning to `COc1ccc(-c2cc(-c3ccccc3)nc(SCC(=O)Nc3ccccc3F)c2C#N)cc1`, the survival was inactive: 155%.
The result for `O=C1c2cccc3cccc(c23)N1c1ccccc1` reads inactive: 108%.
The result for `O=C(O)CNS(=O)(=O)c1ccc2ccccc2c1` reads inactive: 113%; that for `O=C(Nc1nncs1)c1ccc(F)cc1`, inactive: 106%.
Take `COc1ccc(C(=O)Nc2ccc3c(c2)CCCN3S(=O)(=O)c2ccc(C)cc2)c(OC)c1`: the survival is inactive: 60%.
The result for `CN1Cc2ccccc2CC1C(=O)O` (stereo not given) reads inactive: 115%; that for `CCc1ccc(S(=O)(=O)c2cn(C)c3cc(N4CCCC4)c(F)cc3c2=O)cc1`, inactive: 83%.
`O=C(O)c1ccccc1C(=O)NC1=NN(c2ccccc2)CC1`: the survival is inactive: 112%.
With `O=C(NCc1ccco1)c1ccc2c(c1)N(Cc1ccc(Cl)cc1)C(=O)c1ccccc1S2(=O)=O`, the survival was inactive: 109%.
Consider `COC(=O)c1nnn(-c2ccc(Br)cc2)c1C(=O)OC`, for which the survival was inactive: 84%.
As to `CCOC(=O)CC(NC(=O)CCc1c(C)nc2ncnn2c1C)c1ccc(C)cc1` (stereo not given), the survival was inactive: 86%.
As for `CCOc1ccc(C(=O)NCCc2csc(-c3cccc(F)c3)n2)cc1OCC`, the survival was inactive: 115%.
Turning to `COc1cccc(NC(=O)C2CCCN(S(=O)(=O)c3cccc4nonc34)C2)c1` (stereo not given), the survival is inactive: 104%.
As for `Cc1cn2c(=O)c(S(=O)(=O)Nc3ccc(F)cc3F)c(C)nc2s1`, the survival is inactive: 84%.
Take `O=C(NCCC1=CCCCC1)C1CCN(C(=O)N2CCOc3ccc(Cl)cc32)CC1`: the survival is inactive: 94%.
The result for `CN(Cc1ccccc1)c1ccc(-c2nc(-c3ccncc3)no2)cc1[N+](=O)[O-]` reads inactive: 95%; that for `Cc1cc(C)cc(C(=O)NCC(c2ccc(N(C)C)cc2)N2CCCC2)c1` (stereo not given), inactive: 69%.
The result for `O=C(NCc1ccc(Cl)cc1)c1ccc(Cn2c(=O)c3cccn3c3cccnc32)cc1` reads inactive: 84%.
On to `Oc1ccccc1Nc1nc2ccccc2n2nnnc12`, for which the survival was inactive: 85%.
`COc1ccc(-c2c(C)c3ccc(O)c(CN4CCCC(C)C4)c3oc2=O)cc1OC` (stereo not given): the survival is inactive: 91%.
Regarding `O=C1CCc2cc(S(=O)(=O)NC(C(=O)Nc3cccc(F)c3)c3ccccc3)ccc2N1` (stereo not given), the survival was inactive: 88%.
To `CC1Cc2ccccc2N1C(=O)Cn1c(-c2cccnc2)ccc(C#N)c1=O` (stereo not given) belongs inactive: 128%; to `COc1ccc(S(=O)(=O)N2CCN(Cc3nc4ccc(C)cc4o3)CC2)cc1`, inactive: 72%; to `O=C(Cn1c(=O)n(Cc2nc(-c3ccccc3)no2)c(=O)c2ccccc21)Nc1cccc(Cl)c1`, inactive: 71%.
Regarding `Cc1ccc(C)c(Nc2nnc(-c3ccc(C)c(S(=O)(=O)NCC4CCCO4)c3)c3ccccc23)c1` (stereo not given), the survival was inactive: 88%.
The result for `COc1ccc(-c2nnc(SCC(=O)Nc3ccc(C)c(C)c3)s2)cc1` reads inactive: 71%; that for `CCOc1ccc(N2C(=O)c3[nH]nc(-c4ccc(OC)cc4)c3C2c2cccs2)cc1` (stereo not given), inactive: 81%.
In the case of `COCCCNC(=O)c1ccc2c(c1)N(Cc1ccccc1F)C(=O)c1ccccc1S2=O` (stereo not given), the survival is inactive: 93%.
To `CC(C)C1Oc2cc3oc(=O)ccc3cc2/C1=N\NC(N)=S` (stereo not given) belongs inactive: 114%; to `COc1ccc(C(=O)/C=C/c2cn(CC(O)CN3CCc4ccccc43)c3ccccc23)cc1` (stereo not given), inactive: 63%.
As for `CCc1ccccc1NC(=O)CCCN1C(=O)CCn2nc(-c3cn(C)c4ccccc34)cc21`, the survival is inactive: 134%.
